From ChEMBL document CHEMBL4888484, “Replenishing the malaria drug discovery pipeline: Screening and hit evaluation of the MMV Hit Generation Library 1 (HGL1) against asexual blood stage Plasmodium falciparum ,using a nano luciferase reporter read-out” (2022) come the findings set out here.

Hit rate of the full screen: of about 150,000 compounds, about 540 (0.36%) showed an effect of 50% or more. This is one part of the list.

The subject of this experiment is Plasmodium falciparum. The experiment is described as follows: Primary screen in NF54 nanoGlo assay, in single point, at 2uM, 72h; a lower Z score goes with more inhibition. It counts as functional, Erythrocyte. To be noted: timepoint 72 hour.
The term % Inhibition denotes the relative decrease from the control value, in per cent. Consider `O=S(=O)(NCCNc1ccc(Nc2ccncc2)nn1)c1ccccc1`, for which the “% Inhibition” value came to 6% and the Z score is on record as -0.82.
On to `CCc1ccc(CNC(=O)c2cc3cn(C4CCCC4)cc3s2)cc1`, for which the “% Inhibition” value is reported as -15% and the Z score turned out to be 1.9.
For `O=C(c1cc2ccccc2[nH]1)N1CC[C@H](Oc2cccnn2)C1`, in that order: -19% and 2.13.
As for `COCC(=O)N1CCN(c2cc3c(nn2)CCCC3)CC1`, the “% Inhibition” value is recorded as -5% and the Z score is on record as 0.91.
The corresponding values for `CCC(CC)C(=O)N1CCN(c2nc3cccnc3n(C)c2=O)CC1` are -13% and 1.62.
For `C[C@H](NS(C)(=O)=O)c1nnc(N2CCCC2)n1Cc1ccccc1`, in that order: -5% and 0.86.
The corresponding values for `Cc1ccc2c(c1)CCCN2C(=O)Cn1cnc2ccccc2c1=O` are -5% and 0.7.
On to `N#CCCN(CCC#N)C(=O)c1cc(Cl)c[nH]1`, for which the “% Inhibition” value was -15% and the Z score is recorded as 1.37.
For `Cn1nccc1[C@@H]1CCCN1C(=O)c1cc2c(=O)[nH]cnc2cn1`, in that order: -1% and 0.09.
Turning to `O=C(COC(=O)c1ccc(S(=O)(=O)N2CCCCC2)cc1)NCC1CCCCC1`, the “% Inhibition” value is reported as -14% and the Z score is 1.42.
For `C[C@H]1CCCCN1C(=O)NCCc1cnoc1`, in that order: 0% and 0.01.
In the case of `CO[C@@]12CC[C@@H](O)C[C@@H]1N(C(=O)c1ccc(Cn3nnnc3C)cc1)CC2`, the “% Inhibition” value is on record as 5% and the Z score is reported as -1.05.
The corresponding values for `CCc1noc(CNC(=O)c2ccc(Cl)cn2)n1` are 3% and -0.3.
The corresponding values for `O=S(=O)(N1CCCCCC1)N1CCN(Cc2nncs2)CC1` are -7% and 1.19.
In the case of `COc1cccc(C(=O)Nc2ccc3c(c2)N(C)S(=O)(=O)N3C)c1`, the “% Inhibition” value is -10% and the Z score worked out at 1.27.
The corresponding values for `Brc1cncc(CNc2nnc(CC3CCCCC3)o2)c1` are -10% and 1.9.
For `Cc1nc(N2[C@@H]3CC[C@H]2CNC(=O)C3)c2c(C)nn(C)c2n1`, in that order: -2% and 0.25.
On to `O=C(Cn1cccnc1=O)N1CCC[C@H](c2[nH]ncc2-c2ccc(F)cc2)C1`, for which the “% Inhibition” value was -11% and the Z score is 1.45.
Consider `Cc1ncsc1[C@H]1Nc2ccc(Cl)cc2C(=O)N1CC1CC1`, for which the “% Inhibition” value was -8% and the Z score amounted to 0.94.
Consider `Cc1cc(Cl)ccc1N1C(=O)CN(S(=O)(=O)c2ccccc2)C[C@@]1(C)C(=O)NCCC(C)C`, for which the “% Inhibition” value was -8% and the Z score turned out to be 1.06.
For `O=C(O)c1ccccc1CN1CCC[C@H](NS(=O)(=O)c2cccc(F)c2)C1`, in that order: 0% and 0.03.
The corresponding values for `CC(=O)NC(C)C(=O)N1CC(C)C(NC(=O)OC(C)(C)C)C1` (stereo unspecified) are 24% and -2.69.
For `COc1cccc(OCCc2cc(C#N)ccn2)c1`, in that order: -4% and 0.79.
Regarding `CC(C)C(=O)N1C[C@@H]2CN(C(=O)c3nccc4ccccc34)C[C@]2(CO)C1`, the “% Inhibition” value was 13% and the Z score is on record as -1.72.
For `Cc1noc(C)c1C(=O)N(C)Cc1ccncc1`, in that order: -15% and 2.81.
For `CN(C)C(=O)N[C@H]1CCCN(C(=O)c2ccc3c(c2O)CCCC3)C1`, in that order: 5% and -0.85.
For `COc1ccc(C)cc1NC(=O)Cn1nc(Nc2ccc(F)cc2)c(S(=O)(=O)c2ccccc2)c1N`, in that order: -19% and 2.46.
As for `CC(=O)N1C[C@H](O)C[C@@H]1C(=O)N1CCn2nc(C(C)(C)C)cc2C1`, the “% Inhibition” value was 8% and the Z score is listed as -1.21.
The corresponding values for `C[C@]1(O)CCN(Cc2ccccc2OC(F)(F)F)C[C@@H]1O` are 3% and -0.5.
For `CCOc1cccc(-c2noc(Cn3c(=O)n(Cc4ccccc4)c(=O)c4sccc43)n2)c1`, in that order: -14% and 1.89.
For `Cc1ccc(C(=O)NCc2ccc(N3CCO[C@@H](C)C3)nc2)c(=O)[nH]1`, in that order: -22% and 1.96.
Regarding `CCN(CCC#N)C(=O)CCc1cc(F)ccc1Br`, the “% Inhibition” value was -4% and the Z score worked out at 0.48.
As to `CCN1CCn2cc(C(=O)NCc3cccc(Br)c3)nc2C1`, the “% Inhibition” value is recorded as 2% and the Z score is listed as -0.31.
The corresponding values for `O=C(CCc1cnccn1)NCc1cccnc1-n1cnc2ccccc21` are 4% and -0.86.
With `CC(C)[C@@H](CO)NS(=O)(=O)c1cc(Br)ccc1F`, the “% Inhibition” value is listed as 6% and the Z score was -0.79.
Regarding `CCS(=O)(=O)Nc1cc(C(=O)NCCc2ccncc2)c2c(c1)nc(-c1ccccc1)n2C`, the “% Inhibition” value is 0% and the Z score is 0.06.
For `Cc1ccc(NC(=O)c2nc(-c3cn(-c4cccc(Cl)c4)nn3)no2)cc1`, in that order: -1% and 0.17.
For `Cc1nc2ccc(N3CCC[C@H](c4nc(-c5ccc(F)cc5)no4)C3)nn2n1`, in that order: -4% and 0.58.
As to `O=C(NCc1ccc(N2CCOCC2)cc1)c1nnn2c1c(=O)[nH]c1ccccc12`, the “% Inhibition” value is -7% and the Z score was determined as 1.25.
For the compound `O=C(CC1CCOCC1)NCc1ccc(F)cc1`, the “% Inhibition” value stood at 3% and the Z score was -0.6.
For `Cc1cccc(NC(=O)[C@H]2CC(=O)N(C(C)C)C2)n1`, in that order: -2% and 0.29.
For `CC(C)Cc1nc(C(=O)Nc2cccc(F)c2)n(-c2ccccn2)n1`, in that order: -4% and 0.79.
The corresponding values for `CCc1ccc2nc(-c3cn(CC)c(=O)[nH]c3=O)[nH]c(=O)c2c1` are 25% and -2.81.
With `Cc1nc2ccc(NC(=O)CC3CC4CCC3C4)cc2s1` (stereo unspecified), the “% Inhibition” value came to 2% and the Z score is on record as -0.43.
The corresponding values for `COc1ccccc1-c1n[nH]c(C2CC2)c1NC(=O)C1CCCC1` are 1% and -0.16.
Take `CCCn1nnnc1CN1CCC[C@H]1c1nc(C2CCCCC2)co1`: the “% Inhibition” value is listed as -12% and the Z score was found to be 2.18.
The corresponding values for `CCC(C)C(C)(O)CNC(=O)Cc1ccc(Cl)s1` (stereo unspecified) are -13% and 2.08.
For `CCOC(=O)N1CCN(c2cc([C@H]3CCOC3)nc(COC)n2)CC1`, in that order: 4% and -0.58.
For `CC(C)[C@@H]1CN(CCCn2cccn2)CCCN1Cc1ccc(F)cc1`, in that order: 1% and -0.19.
`CN(CC1CCOC1)C(=O)NC(c1ccccc1F)C1CCCC1` (stereo unspecified): the “% Inhibition” value was -12% and the Z score was 1.53.
The corresponding values for `CC(C)c1nnc(N2CCC[C@H](C(F)(F)F)C2)s1` are 6% and -0.94.
With `COc1cccc(N2CCN(C3=NC(=O)[C@@H](C#N)C4(CCCCC4)N3)CC2)c1`, the “% Inhibition” value is given as -2% and the Z score came out at 0.23.
For `CCC(=O)Nc1cc(NC(=O)N2CCCO[C@@H](C)C2)ccc1OC`, in that order: -2% and 0.45.
For `COc1ccc(N(Cc2ccco2)Cc2nnc(C3CC3)o2)cc1F`, in that order: -3% and 0.26.
As to `Cc1ccc(CN2C(=O)C3CCCCC3C2=O)cc1S(=O)(=O)Nc1ccc(F)c(F)c1` (stereo unspecified), the “% Inhibition” value is 6% and the Z score is given as -0.75.
For `O=C1CC[C@@H](CN(Cc2cccnc2)Cc2ccnn2-c2ccccc2)N1`, in that order: 4% and -0.9.
The corresponding values for `CCOC(=O)c1cccnc1N1CC[S@+]([O-])C(C)(C)C1` are -4% and 0.46.
For `COc1ccc(-c2nn(-c3ccccc3C)cc2CN(C)Cc2cccnc2)cc1F`, in that order: 4% and -0.42.
Regarding `CCCCNC(=O)C1CCN(c2nc3ccccc3[nH]2)CC1`, the “% Inhibition” value is recorded as -1% and the Z score was found to be 0.16.
The corresponding values for `c1cc2cc(-c3nc(CCCN4CCCC4)no3)ccc2[nH]1` are 0% and 0.03.
Turning to `CCc1cnc(C)nc1N1CCC(NCCCc2ccc(F)cc2)CC1`, the “% Inhibition” value is -9% and the Z score worked out at 1.12.
The corresponding values for `O=C1C[C@H](c2ccc(F)c(F)c2F)c2cnn(Cc3cccs3)c2N1` are 8% and -1.09.
For `O=C(c1cc(-c2ccc(F)cc2)n[nH]1)N1CC(c2nc(-c3ccccc3)no2)C1`, in that order: -2% and 0.28.
With `CCc1ccccc1NC(=O)N1CCC(c2cc(=O)n3nccc3n2C)CC1`, the “% Inhibition” value is -7% and the Z score is listed as 1.07.
The corresponding values for `CCC(=O)N1CCc2sc(C(=O)N3CCN(c4ccccc4F)CC3)cc2C1` are -10% and 1.57.
The corresponding values for `CCC1CN(C(=O)C2CC2c2cccc(OC)c2)CC1N(C)C` (stereo unspecified) are 8% and -0.97.
For `COc1ccccc1NC(=O)c1c(C)n[nH]c1NCc1ccnn1CC(C)C`, in that order: -11% and 1.48.
Regarding `Cc1ccc(NC(=O)C2C3C=CC4(CNC(=O)C(c5ccc(C)cc5)N(Cc5ccccc5F)C(=O)C24)O3)cc1` (stereo unspecified), the “% Inhibition” value is -2% and the Z score is 0.38.
The corresponding values for `CN(Cc1nccn1C)C(=O)c1ccc(Oc2ccccc2)o1` are 14% and -1.62.
The corresponding values for `CCc1nnsc1C(=O)NC(C)C1CCCO1` (stereo unspecified) are -7% and 1.32.
The corresponding values for `Cc1ccc(N[C@@](C)(C(=O)NCc2c(C)n[nH]c2C)c2ccccc2)cc1` are 6% and -1.08.
Take `COc1ccc(NC(=O)C2CC(c3ccc(F)c(C)c3)CN(Cc3ccccc3Cl)C2)c(OC)c1` (stereo unspecified): the “% Inhibition” value is on record as -3% and the Z score was 0.64.
For `CN(C)c1nc2c(c(=O)[nH]c(=O)n2C)n1CCc1ccccc1`, the “% Inhibition” value is -7% and the Z score was 1.4.
Take `OC12CCCCC1[C@H](c1ccc(Cl)cc1Cl)NCC2` (stereo partly specified): the “% Inhibition” value is -3% and the Z score came to 0.38.
For `CN1CCCCC[C@H]1C(=O)NC1CCN(S(=O)(=O)c2ccccc2)CC1`, in that order: -23% and 2.18.
Regarding `Cc1c(C(=O)N(CCN(C)C)C2CC2)oc2c(Cl)cccc12`, the “% Inhibition” value is recorded as -8% and the Z score was 0.85.
For `CN(C)c1ncc(CN[C@@H]2CCCC[C@H]2S(C)(=O)=O)n1C`, in that order: -7% and 0.84.
For `CCc1ncoc1C(=O)N[C@H]1CCc2c1ccc(Cl)c2Cl`, in that order: -7% and 0.98.
For `COc1ccc(Nc2nc(C)c(NC(=O)c3ccc(F)cc3)c(Nc3ccc(OC)cc3)n2)cc1`, in that order: 7% and -1.37.
Turning to `COCC(=O)N1CCCN(C(=O)c2ccc(-c3cc(N)ncn3)cc2)CC1`, the “% Inhibition” value is -11% and the Z score is listed as 2.2.
For `CN(CCc1ncon1)C(=O)[C@H]1C[C@@H]1c1ccccc1`, in that order: -16% and 3.07.
On to `Cc1nnc(NCCn2cncc2-c2ccccc2)nc1C`, for which the “% Inhibition” value amounted to 5% and the Z score is -1.05.
For `NC(=O)C1CCN(Cc2cc(Cl)c3c(c2)OCCCO3)CC1`, in that order: -5% and 0.66.
